{"source": "a collection of fitness landscapes (doi:10.1016/j.celrep.2020.107928)", "parents": {"B1": {"name": "Caulobacter ParB omega fusion; a variant is named by its letters at X, in order, B8GW30 (parent)", "chain": "MESVVVGEPGMSEGRRGLGRGLSALLGEVDAAPAQAPGEQLGGSREAPIEILQRNPDQPRRTFREEDLEDLSNSIREKGVLQPILVRPSPDTAGEYQIVAGERAWRAAQRAGLKTVPIMVRELDDLAVLEIGIIENVQRADLNVLEEALSYKVLMEKFERTQENIAQTIGKSXSHVANXMRLLXLPDEVQSYLVSGELTAXHARAIAAAADPVALAKQIIEGGLSVRETEALARKAPNLSAGKSKGGRPPRVKDTDTQALESDLSSVLGLDVSIDHRGSTGTLTITYATLEQLDDLCNRLTRGI"}}, "note": "Whole data set: some 81,000 sequences, median “one-hybrid fitness for binding NBS DNA” near -0.1, cut for the highest 2% near 0.36. The list shows a part of the results.", "data": [{"variants_of": "B1", "assay": "one-hybrid fitness for binding NBS DNA (the Noc-binding site; scaled: cognate 1, non-cognate 0); higher = stronger binding", "details": "with NBS DNA site", "in_short": "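In E. coli USO, a HIS3 reporter with its site placed 19 bp from the promoter was used to select Caulobacter ParB variants randomised at four specificity codons. Growth lasted 48 hours at 37°C on histidine-free M9 containing 0.1 mM IPTG and 5 mM 3-AT. Fitness was taken as the log change in variant-to-wild-type read ratio from Illumina sequencing of pre- and post-selection plasmids, rescaled between the non-cognate and cognate sites.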", "values": [{"variant": "VTFA", "one-hybrid fitness for binding NBS DNA": "≤ 0.2"}, {"variant": "SVGG", "one-hybrid fitness for binding NBS DNA": "≤ 0.2"}, {"variant": "WLHR", "one-hybrid fitness for binding NBS DNA": "≤ 0.2"}, {"variant": "CVFI", "one-hybrid fitness for binding NBS DNA": "≤ 0.2"}, {"variant": "GMFS", "one-hybrid fitness for binding NBS DNA": "≤ 0.2"}, {"variant": "EWTA", "one-hybrid fitness for binding NBS DNA": "≤ 0.2"}, {"variant": "NRLG", "one-hybrid fitness for binding NBS DNA": "≤ 0.2"}, {"variant": "AGGT", "one-hybrid fitness for binding NBS DNA": "≤ 0.2"}, {"variant": "HMEG", "one-hybrid fitness for binding NBS DNA": "≤ 0.2"}, {"variant": "PYFR", "one-hybrid fitness for binding NBS DNA": "≤ 0.2"}, {"variant": "PTHY", "one-hybrid fitness for binding NBS DNA": "≤ 0.2"}, {"variant": "RRKM", "one-hybrid fitness for binding NBS DNA": 0.647}, {"variant": "IGQS", "one-hybrid fitness for binding NBS DNA": "≤ 0.2"}, {"variant": "RWET", "one-hybrid fitness for binding NBS DNA": "≤ 0.2"}, {"variant": "QGVC", "one-hybrid fitness for binding NBS DNA": "≤ 0.2"}, {"variant": "CCEL", "one-hybrid fitness for binding NBS DNA": "≤ 0.2"}, {"variant": "REDF", "one-hybrid fitness for binding NBS DNA": "≤ 0.2"}, {"variant": "IRVI", "one-hybrid fitness for binding NBS DNA": "≤ 0.2"}, {"variant": "KPDF", "one-hybrid fitness for binding NBS DNA": "≤ 0.2"}, {"variant": "TEVR", "one-hybrid fitness for binding NBS DNA": "≤ 0.2"}, {"variant": "THGD", "one-hybrid fitness for binding NBS DNA": "≤ 0.2"}, {"variant": "HQRP", "one-hybrid fitness for binding NBS DNA": "≤ 0.2"}, {"variant": "WRRG", "one-hybrid fitness for binding NBS DNA": "≤ 0.2"}, {"variant": "GQLL", "one-hybrid fitness for binding NBS DNA": "≤ 0.2"}, {"variant": "ENCS", "one-hybrid fitness for binding NBS DNA": "≤ 0.2"}, {"variant": "HWMR", "one-hybrid fitness for binding NBS DNA": "≤ 0.2"}, {"variant": "NGVM", "one-hybrid fitness for binding NBS DNA": "≤ 0.2"}, {"variant": "QMTR", "one-hybrid fitness for binding NBS DNA": 0.568}, {"variant": "WLQC", "one-hybrid fitness for binding NBS DNA": "≤ 0.2"}, {"variant": "ITIN", "one-hybrid fitness for binding NBS DNA": "≤ 0.2"}, {"variant": "RVHM", "one-hybrid fitness for binding NBS DNA": "≤ 0.2"}, {"variant": "ARSQ", "one-hybrid fitness for binding NBS DNA": "≤ 0.2"}, {"variant": "LGDT", "one-hybrid fitness for binding NBS DNA": "≤ 0.2"}, {"variant": "SERV", "one-hybrid fitness for binding NBS DNA": "≤ 0.2"}, {"variant": "TNRY", "one-hybrid fitness for binding NBS DNA": "≤ 0.2"}, {"variant": "AECV", "one-hybrid fitness for binding NBS DNA": "≤ 0.2"}, {"variant": "RNLQ", "one-hybrid fitness for binding NBS DNA": "≤ 0.2"}, {"variant": "SWEP", "one-hybrid fitness for binding NBS DNA": "≤ 0.2"}, {"variant": "PGKP", "one-hybrid fitness for binding NBS DNA": "≤ 0.2"}, {"variant": "LADG", "one-hybrid fitness for binding NBS DNA": "≤ 0.2"}, {"variant": "DTRL", "one-hybrid fitness for binding NBS DNA": "≤ 0.2"}, {"variant": "GGPI", "one-hybrid fitness for binding NBS DNA": "≤ 0.2"}, {"variant": "VRSA", "one-hybrid fitness for binding NBS DNA": "≤ 0.2"}, {"variant": "PGPC", "one-hybrid fitness for binding NBS DNA": "≤ 0.2"}, {"variant": "ASAA", "one-hybrid fitness for binding NBS DNA": "≤ 0.2"}, {"variant": "SPCP", "one-hybrid fitness for binding NBS DNA": "≤ 0.2"}, {"variant": "QIGR", "one-hybrid fitness for binding NBS DNA": 0.437}, {"variant": "TMVP", "one-hybrid fitness for binding NBS DNA": "≤ 0.2"}, {"variant": "FNAY", "one-hybrid fitness for binding NBS DNA": "≤ 0.2"}, {"variant": "PTGH", "one-hybrid fitness for binding NBS DNA": "≤ 0.2"}, {"variant": "VLTS", "one-hybrid fitness for binding NBS DNA": "≤ 0.2"}, {"variant": "ANPV", "one-hybrid fitness for binding NBS DNA": "≤ 0.2"}, {"variant": "IRWR", "one-hybrid fitness for binding NBS DNA": "≤ 0.2"}, {"variant": "GIQS", "one-hybrid fitness for binding NBS DNA": "≤ 0.2"}, {"variant": "YLDS", "one-hybrid fitness for binding NBS DNA": "≤ 0.2"}, {"variant": "GFQQ", "one-hybrid fitness for binding NBS DNA": "≤ 0.2"}, {"variant": "LKRN", "one-hybrid fitness for binding NBS DNA": "≤ 0.2"}, {"variant": "KVSM", "one-hybrid fitness for binding NBS DNA": "≤ 0.2"}, {"variant": "HWVK", "one-hybrid fitness for binding NBS DNA": "≤ 0.2"}, {"variant": "SRWP", "one-hybrid fitness for binding NBS DNA": "≤ 0.2"}, {"variant": "EWTF", "one-hybrid fitness for binding NBS DNA": "≤ 0.2"}, {"variant": "RRLY", "one-hybrid fitness for binding NBS DNA": 0.317}, {"variant": "VCPT", "one-hybrid fitness for binding NBS DNA": "≤ 0.2"}, {"variant": "QFIF", "one-hybrid fitness for binding NBS DNA": "≤ 0.2"}, {"variant": "ADRY", "one-hybrid fitness for binding NBS DNA": "≤ 0.2"}, {"variant": "RQRK", "one-hybrid fitness for binding NBS DNA": "≤ 0.2"}, {"variant": "KNWL", "one-hybrid fitness for binding NBS DNA": "≤ 0.2"}, {"variant": "PEIG", "one-hybrid fitness for binding NBS DNA": "≤ 0.2"}, {"variant": "RHMC", "one-hybrid fitness for binding NBS DNA": "≤ 0.2"}, {"variant": "MTDL", "one-hybrid fitness for binding NBS DNA": "≤ 0.2"}, {"variant": "CWVS", "one-hybrid fitness for binding NBS DNA": "≤ 0.2"}, {"variant": "YEAW", "one-hybrid fitness for binding NBS DNA": "≤ 0.2"}, {"variant": "ECGL", "one-hybrid fitness for binding NBS DNA": "≤ 0.2"}, {"variant": "MPEC", "one-hybrid fitness for binding NBS DNA": "≤ 0.2"}, {"variant": "DPRW", "one-hybrid fitness for binding NBS DNA": "≤ 0.2"}, {"variant": "TRCA", "one-hybrid fitness for binding NBS DNA": "≤ 0.2"}, {"variant": "SAPP", "one-hybrid fitness for binding NBS DNA": "≤ 0.2"}, {"variant": "EGKS", "one-hybrid fitness for binding NBS DNA": "≤ 0.2"}, {"variant": "GPTL", "one-hybrid fitness for binding NBS DNA": "≤ 0.2"}, {"variant": "DAKC", "one-hybrid fitness for binding NBS DNA": "≤ 0.2"}, {"variant": "HYPS", "one-hybrid fitness for binding NBS DNA": "≤ 0.2"}, {"variant": "SSPL", "one-hybrid fitness for binding NBS DNA": "≤ 0.2"}, {"variant": "SFHK", "one-hybrid fitness for binding NBS DNA": "≤ 0.2"}, {"variant": "TIVC", "one-hybrid fitness for binding NBS DNA": "≤ 0.2"}, {"variant": "RFSR", "one-hybrid fitness for binding NBS DNA": 0.248}, {"variant": "HIMS", "one-hybrid fitness for binding NBS DNA": "≤ 0.2"}, {"variant": "MPTP", "one-hybrid fitness for binding NBS DNA": "≤ 0.2"}, {"variant": "EWVS", "one-hybrid fitness for binding NBS DNA": "≤ 0.2"}, {"variant": "EAAY", "one-hybrid fitness for binding NBS DNA": "≤ 0.2"}, {"variant": "SNKH", "one-hybrid fitness for binding NBS DNA": "≤ 0.2"}, {"variant": "WSGR", "one-hybrid fitness for binding NBS DNA": "≤ 0.2"}, {"variant": "FEYC", "one-hybrid fitness for binding NBS DNA": "≤ 0.2"}, {"variant": "YPSL", "one-hybrid fitness for binding NBS DNA": "≤ 0.2"}, {"variant": "CLSI", "one-hybrid fitness for binding NBS DNA": "≤ 0.2"}, {"variant": "MYMC", "one-hybrid fitness for binding NBS DNA": "≤ 0.2"}, {"variant": "DWCS", "one-hybrid fitness for binding NBS DNA": "≤ 0.2"}, {"variant": "EYNR", "one-hybrid fitness for binding NBS DNA": "≤ 0.2"}]}]}
